Test results reported in the RNAGym collection of RNA variant scans (doi:10.7554/elife.90254).
Read counts are not given, so values of variants with three or more changes are uncertain.

B1: LINE1-full (parent)
chain: UACGUAGGUGGUUUUCCCCUGAUAGUGCUAAGGGGGCCUGGAAGUUUGGACUGGGCAGAGCUCAACACAGCGUGGCAAAGUGGCUGUGGCUAGACUGCCUCUCUGGAUUCCUCGUCACUCAGCAGGGCAUCUCUGAGAGAAAUGCC

Variants of: B1
Assay: self-cleavage, relative activity (ratio to wild type); higher = more cleavage; in vitro, sequencing; the parent is a self-cleaving ribozyme

| Variant | self-cleavage |
| --- | --- |
| U15C A42G A142G | 1.64 |
| U109C U115G U134C | 0.77 |
| U15C A69G A78G U87A U104A | 0.08 |
| U39A U45A A141G | 1.77 |
| A2G C37U U96C | 0 |
| A6G U104A A121G | 1.33 |
| C3U C61U U73C | 0.12 |
| C38U A77G U87C U96C A140G | 0.27 |
| U13C A31U G82A U134C | 1.28 |
| U13C A94U U115C | 0.66 |
| A59G U104A A121U | 0.09 |
| U45G A67G U73C A142G | 0 |
| C90A A94U U96C A140C | 0.05 |
| U1C U14G A42G A121G | 0.92 |
| C19U U47C C103U | 1 |
| U20C U73C U96A | 0.12 |
| U12C G53A A65U U91C A140U A142G | 0.06 |
| A94U U96A A138G | 0.11 |
| C19U A30U U100C | 1.84 |
| U15G U73C G75A U143G | 0.92 |
| C3A G86A U91C | 0.09 |
| U9G U46A A64G U96A U115C U119A A138G | 0 |
| U46C U62C A141G | 0.14 |
| A42G G54U A129G | 1.3 |

| Variant | self-cleavage |
| --- | --- |
| U14C C84A U96C G137A | 0.09 |
| U52G U91C A142G C146U | 0.57 |
| A92G A107U A140U | 0.11 |
| A24G A59G A117U | 0.13 |
| U12C G36A U132C | 1.75 |
| A67U U96C C111G | 0.07 |
| U5A A43G U45C A140G | 0.38 |
| G34A G41U A64U U73C U87C | 0.05 |
| U46C A67U A69U C118U U119C | 0.03 |
| A43U A67G U81C | 0 |
| U1A A30G A31G A42U | 0.69 |
| U91C U100C A138G | 0.69 |
| U20A G86U A141G | 0.05 |
| G10A U39A G93A A129G A141G | 0.03 |
| A24U A43G A78G C113A | 0.9 |
| U14C U46C A94U G127A | 0.42 |
| A79G U119C A124G | 2.68 |
| U39A G75A U87A U109A | 0.17 |
| A24G U46C U47C A129G U143C | 2.3 |
| A78G A107G G114A | 0.29 |
| U20G A30G A50G | 0 |
| U20C U91C A141G | 1.02 |
| U9C A42G U47C G55U A64G A78G | 0 |
| A2G G10A U73C U119A | 1.73 |

| Variant | self-cleavage |
| --- | --- |
| C18U U23C A79C U112C U132C | 2.12 |
| C56U U85C A117C A136G | 0.06 |
| U13A U14A A43G A136U | 0.89 |
| A121G C133U A138G U143C | 2.53 |
| A30G A43G U112C | 0.73 |
| A31U A59U A65G U109C A142U | 0 |
| U5A U81G A141G | 0.88 |
| A77G U87A G122A A140G A141G | 0.11 |
| C19U A24U U26A U47C C84U | 0.13 |
| U13C A57U U130C | 0.23 |
| A65G U73C A78G | 0 |
| U13C U85A U115C A129G U132C | 0.6 |
| U9C U13A U52A A57G U85A A129G | 0.44 |
| U12C C51U A65G A141G | 0 |
| G54A G127A A138G A141G | 0.78 |
| G11C U47A A141G | 1.79 |
| U20C U26C A42G A65U A138G | 0.39 |
| U14C U62C A92U | 0.05 |
| A24G G34U A64G | 0.3 |
| U9C U13A A69U U73C A92U | 0.25 |
| A24G U52A A57U A77U U130C | 0.43 |
| A59U U112A U134C | 0.58 |
| A42G A67G U85C | 0 |
| U13C U46C A67C A77U U109A U130C A138G | 0.2 |

| Variant | self-cleavage |
| --- | --- |
| U15C G70U A77G G86U | 0.05 |
| U23C A77G A78G | 2.27 |
| U39C U45C U81A | 0.06 |
| A24G U62A G74A | 0.06 |
| G54A A124U U134C | 0.7 |
| A94U A129G A141G | 0.27 |
| U39A U47C A65G U130C | 0.6 |
| U13C U39C A92G | 0 |
| A2U U85C U109A | 0 |
| A92G U115C C118A | 0 |
| A22G U45A A78U A129G | 1.82 |
| A59U A94G U112C | 2.01 |
| U5C U13A U20C | 0.51 |
| A67G C84U U108C U119C U134A | 0 |
| A6G G41U U87C | 0.43 |
| U9A U20G A43G C120U | 0.96 |
| U1C U13A U20G G35A A124G | 0.5 |
| U46C U73A U102C | 1.69 |
| A24U U81C G114A | 1.84 |
| U85A U134C A140G | 0.2 |
| U15C U115C A138U | 1.09 |
| U14C U46C A142G | 1.12 |
| G72A A77U A94G | 0.18 |
| U14C A30U A142G | 1.01 |

| Variant | self-cleavage |
| --- | --- |
| U1C U12A U14C | 0.86 |
| U29C A31U U100A A141G | 0.69 |
| A64G C103A U115A | 0.34 |
| G7A A64U U81C U102C | 0.33 |
| A6U U45C A59U | 0.21 |
| G35U U108A A129G U134C A140G | 1.46 |
| U39A A59G U73C A121G A142G | 0 |
| U29A G40U U85C G97A | 0.01 |
| A64C U73C U100A A138U | 0.34 |
| U5A U9C A30U U130C A140G | 0.85 |
| A64U U104A U134C | 0.65 |
| U20G A77G A92U | 1.88 |
| A31G A64U G83A U87C | 0.18 |
| U13C U14C A117U | 1.67 |
| C51U C61A A67C U100C | 0.12 |
| C18G A22C C28U A121U G126A G139A | 0.49 |
| G33U A69C U91C A124U A129G | 0 |
| U46C U108A C146U | 1.32 |
| U23A A77G C98U | 0.79 |
| G27A A124G G135A | 1.3 |
| U15A A30U A77G U102A | 0.74 |
| U26A U52C C76U A124G | 0.63 |
| U13C U100C C113U | 1.44 |
| U9G A69G G82A | 0.54 |

| Variant | self-cleavage |
| --- | --- |
| U73A U87C U102C U132C A141G U143C | 0 |
| U108C U132C G137A | 2.13 |
| U26C U45C A107U | 1.91 |
| U9C A43U U96C A140G | 0 |
| U9C A92G U96C | 0 |
| A31U A64U A77U A124G | 0.2 |
| U12C U62A U73A U104A U108C U115G | 0 |
| U45A C116U A124G A138G | 0.56 |
| A2G A6G U13C A140G | 0.71 |
| A77G A129U U134A U143C | 2.28 |
| A31U G58A A77G G97A | 0.02 |
| U62C A65G A69C | 0.4 |
| U23C A77U A121G U132C | 1.84 |
| A30U U115C A124G A136U | 2 |
| A43G A64U C98U U100C A140U | 0.57 |
| A31U G74A C120A | 0.98 |
| U13A A141G U143C | 1.84 |
| A50U U108C U132C | 2.12 |
| U12C U23C U119A U143A | 1.19 |
| A6G A140G A142C | 0.59 |
| G53A G58A A129G A140G | 0.02 |
| A6U C66U U85C U100C U112C | 0.04 |
| U12C A78G U87C | 0.07 |
| U15A C17A A22G G86U G122A | 0.31 |

| Variant | self-cleavage |
| --- | --- |
| U52A U104G G106A A129G U130C | 2.74 |
| G21A U62C A67G A92G G114A | 0 |
| U73A A78G U85A C131U | 0.03 |
| A6U U29C A141G | 0.97 |
| U12A U87C U96A | 0.08 |
| U15C A31G C51A A136G | 1.46 |
| A31U U143A C146A | 0.99 |
| G41U A43G U62C | 0.06 |
| U104C A140G A142G | 1.15 |
| U14C G49U U109C U112C | 2.3 |
| A42U U46C C98U C118U | 0.57 |
| C3A G10A A24G A43U | 0.64 |
| U73C A141G U143C | 2.76 |
| U12C U14C U29C A141G | 0.38 |
| U12C A77G U100C A136C | 1.25 |
| U5A A6C A121G A141G U143C | 1.31 |
| U45A U47C U115C G126A | 1.9 |
| U15C U81G A136G | 2.22 |
| U13C U52C A64G | 0.56 |
| C68U A94G U102C U115C A136G | 0.22 |
| U46C G49C A121G A142G | 1.31 |
| A2G U14A A67G A117G | 0 |
| G36C U73A U109C U112C | 0.63 |
